# Measured values from PubChem BioAssay AID894 (National Center for Advancing Translational Sciences (NCATS), 2007).
# The campaign covered roughly 150,000 compounds. About 6,500 (4.3%) were called active. Inconclusive means that the source gave no clear call. Such entries were picked first, then a sample of the others. Calls follow the shape of the dose curve; as a rule, active = well fitted inhibition curve with a large enough effect (not every such curve was filed as active); inconclusive = small, poorly fitted or top-dose-only effect, or another doubt; inactive = no such curve, though single readings can be large or run the other way. Potencies of inconclusive entries are left out as doubtful fits.
# Molecular target: 15-hydroxyprostaglandin dehydrogenase [NAD(+)] (Homo sapiens) (UniProt P15428)
# Assay: qHTS Assay for Inhibitors of HPGD (15-Hydroxyprostaglandin Dehydrogenase)
# Settings: purified HPGD, NADH fluorescence kinetic, PGE2 substrate; activity change, negative = inhibition: active compounds read low
# Summary of the method: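 NADH formation kinetics: reaction with 30 uM PGE2 and 1 mM NAD+ (final), 20 nM enzyme, Tris-HCl pH 8 with Tween 20, after 15 min compound preincubation at room temperature. Fluorescence change, last versus first of five reads.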
# % is scaled to controls: 0 for no effect and ±100 for the full control effect; potency is read from the fitted curve at half-maximal effect; tags tell the direction and shape of the fitted curve.
# UniProt P15428, sequence (P15428 whole entry, looked up): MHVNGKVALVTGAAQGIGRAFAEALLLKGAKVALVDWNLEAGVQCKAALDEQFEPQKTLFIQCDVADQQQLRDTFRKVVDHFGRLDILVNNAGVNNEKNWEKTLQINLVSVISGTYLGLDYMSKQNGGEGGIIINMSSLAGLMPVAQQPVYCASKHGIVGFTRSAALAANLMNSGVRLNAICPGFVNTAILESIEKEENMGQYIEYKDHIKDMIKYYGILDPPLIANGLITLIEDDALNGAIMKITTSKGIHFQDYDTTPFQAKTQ
Compound,Potency,"activity change, negative = inhibition"
O=C(CSc1nc2ccsc2c(=O)n1Cc1ccc(C(=O)O)cc1)NCC1CCCO1 (stereo not given),"inconclusive [inhibitor, single point]",–
Cc1[nH][nH]c(=O)c1C(c1c(C)[nH][nH]c1=O)c1cn(Cc2ccc(Cl)c(Cl)c2)c2ccccc12,–,inactive: -4.16%
O=C(O)c1cccc(CN2C(=O)SC(Nc3ccccc3)C2=O)c1 (stereo not given),–,inactive: -10.4%
Cc1ccc2oc(=O)c3cnn(CC(=O)N4CCCc5ccccc54)c3c2c1,–,inactive: -20.7%
O=C1CCCc2c1cc(C(=O)Nc1ccc(Br)cn1)c(=O)n2-c1ccccc1,active: 35.5 µM,–
COc1ccc(CC(=S)N2CCOCC2)cc1F,–,inactive: -6.67%
CCCCc1cc(=O)oc2cc(OCC(=O)N(CC)CC)c(Cl)cc12,"inconclusive [inhibitor, partial curve]",–
COc1ccccc1[C@@H]1C(c2ccccc2)=NN(c2ccc(Br)cc2)[C@H]1C(=O)N1CCOC1=O,"inconclusive [inhibitor, partial curve]",–
COc1ccc(-c2nc(Cc3ccc(Cl)cc3)no2)cc1OC,"inconclusive [inhibitor, partial curve]",–
O=C(Nc1nnc(SCc2ccc(F)cc2)s1)C1CC(=O)N(c2ccc3c(c2)OCCO3)C1 (stereo not given),"inconclusive [inhibitor, partial curve]",–
N/N=C1/CC(=O)NC(=O)N1,"inconclusive [inhibitor, partial curve]",–
O=C(Cc1c(O)c2ccccc2[nH]c1=O)NC1CCCCCC1,"inconclusive [inhibitor, partial curve]",–
CCn1cnc2cc(NCc3ccc(C)cc3)ccc21,"inconclusive [inhibitor, partial curve]",–
C=CCN1c2ccccc2[C@]23C[C@@H](C(=O)OC)N(S(=O)(=O)c4ccc5c(c4)OCCN5C)C2=NC(C(=O)OC)=C(C(=O)OC)[C@H]13,–,inactive: 2.8%
COc1ccc2c(C)cc(SCC(=O)N3CCOCC3)nc2c1,–,inactive: -21.8%
COC(=O)CSc1nc(N2CCCCC2)c2c(c1C#N)CCCC2,"inconclusive [inhibitor, single point]",–
CC(C)NS(=O)(=O)c1ccc(OCC(=O)NCCC2=CCCCC2)cc1,–,inactive: -3.59%
Cc1ccc(S(=O)(=O)/C(C#N)=C/c2c(N3CC(C)OC(C)C3)nc3c(C)cccn3c2=O)cc1 (stereo not given),active: 2.24 µM,–
O=C(NCc1cn2ccsc2n1)c1c(F)cccc1Cl,active: 8.91 µM,–
O=Cc1cn(-c2ccccc2)nc1-c1cc2c(ccc3ccccc32)oc1=O,"inconclusive [inhibitor, partial curve]",–
COc1cc(OC)c2c(c1)OC(=O)CC2c1ccc2c(c1)OCO2 (stereo not given),"inconclusive [inhibitor, single point]",–
Cc1csc2ncc(C(=O)NCc3ccco3)c(=O)n12,"inconclusive [inhibitor, partial curve]",–
CC(C)CCNC(=O)COc1ccc2c(c1)C(=O)CC(C)(C)O2,"inconclusive [inhibitor, partial curve]",–

Compound,Potency,"activity change, negative = inhibition"
O=C(Nc1ccc(Cl)cc1C(=O)Nc1ccncc1)c1ccco1,"inconclusive [inhibitor, partial curve]",–
COc1cc(OC)nc(NC(=O)CCl)n1,–,inactive: -16.6%
CCOC(=O)c1c(-c2ccccc2)csc1NC(=O)C1CCCO1 (stereo not given),"inconclusive [inhibitor, single point]",–
CCc1ccc(C(=O)CCC2CCCCC2=O)cc1 (stereo not given),active: 15.8 µM,–
COc1ccc(C2NC(=O)NC3=C2CCc2ccccc23)cc1 (stereo not given),"inconclusive [inhibitor, partial curve]",–
N#CCSc1nnc(Nc2ccccc2)s1,active: 28.2 µM,–
CCCCNCc1cc(OC)c(OCC(N)=O)cc1Br,–,inactive: -17.4%
Cc1ccc(C(=O)CCNc2ccc(Br)cc2)o1,–,inactive: -10.4%
Cn1c(-c2ccco2)nc2cc3ccccc3cc21,"inconclusive [inhibitor, partial curve]",–
O=C(CSc1ccc2nnc(-c3cccnc3)n2n1)NCc1ccc2c(c1)OCO2,"inconclusive [inhibitor, single point]",–
CC(C)c1onc(C(=O)N2CCCCC2C)c1[N+](=O)[O-] (stereo not given),"inconclusive [inhibitor, partial curve, poor fit]",–
O=C(CCSCc1ccc(Cl)cc1)NCCc1ccccc1,"inconclusive [inhibitor, partial curve, poor fit]",–
Nc1c2c(=O)oc(-c3ccccc3)cc2nn1-c1ccccc1,"inconclusive [inhibitor, partial curve]",–
CSc1sc2ccccc2[n+]1CCCS(=O)(=O)[O-],"inconclusive [inhibitor, single point]",–
CC(=O)O[C@]1(C(C)=O)CC[C@H]2[C@@H]3C=C(Cl)C4=CC(=O)[C@@H]5C[C@@H]5[C@]4(C)[C@H]3CC[C@@]21C,–,inactive: -6%
Cc1ccc(OCc2ccc(C(=O)N3CCOCC3)cc2)cc1C,active: 25.1 µM,–
COc1ccc(CN(C)CC(=O)Nc2cc3oc4ccccc4c3cc2OC)c(OC)c1,"inconclusive [inhibitor, partial curve]",–
CC1=CC=CC2=NC(=O)CC(C)(C(=O)N(CC(=O)NC(C)C)C3CCCC3)N12 (stereo not given),"inconclusive [inhibitor, partial curve]",–
COc1cccc2c(=O)ccoc12,"inconclusive [inhibitor, partial curve]",–
O=C(NCc1ccco1)c1c(F)cccc1Cl,active: 14.1 µM,–
c1nc(NCCN2CCOCC2)c2cc(-c3ccc4c(c3)OCO4)ccc2n1,"inconclusive [inhibitor, partial curve]",–
CCC1(CC)NC(=O)N(CC(=O)Nc2sc3c(c2C(N)=O)CCC3)C1=O,"inconclusive [inhibitor, partial curve, poor fit]",–
